# Assay results as given in paper PMC4336329 (PLoS ONE, 2015).
# Screen size: about 310,000 compounds; about 2,200 (0.71%) showed an effect of 50% or more. Effects have a minus sign here. The list shows a part of the results.
# Molecular target: human ether-à-go-go-related gene (hERG) potassium channel (human, UniProt Q12809)
# Assay: primary screen, population patch clamp on CHO cells stably expressing hERG
# Sequence of human ether-à-go-go-related gene (hERG) potassium channel (Q12809 whole entry, looked up): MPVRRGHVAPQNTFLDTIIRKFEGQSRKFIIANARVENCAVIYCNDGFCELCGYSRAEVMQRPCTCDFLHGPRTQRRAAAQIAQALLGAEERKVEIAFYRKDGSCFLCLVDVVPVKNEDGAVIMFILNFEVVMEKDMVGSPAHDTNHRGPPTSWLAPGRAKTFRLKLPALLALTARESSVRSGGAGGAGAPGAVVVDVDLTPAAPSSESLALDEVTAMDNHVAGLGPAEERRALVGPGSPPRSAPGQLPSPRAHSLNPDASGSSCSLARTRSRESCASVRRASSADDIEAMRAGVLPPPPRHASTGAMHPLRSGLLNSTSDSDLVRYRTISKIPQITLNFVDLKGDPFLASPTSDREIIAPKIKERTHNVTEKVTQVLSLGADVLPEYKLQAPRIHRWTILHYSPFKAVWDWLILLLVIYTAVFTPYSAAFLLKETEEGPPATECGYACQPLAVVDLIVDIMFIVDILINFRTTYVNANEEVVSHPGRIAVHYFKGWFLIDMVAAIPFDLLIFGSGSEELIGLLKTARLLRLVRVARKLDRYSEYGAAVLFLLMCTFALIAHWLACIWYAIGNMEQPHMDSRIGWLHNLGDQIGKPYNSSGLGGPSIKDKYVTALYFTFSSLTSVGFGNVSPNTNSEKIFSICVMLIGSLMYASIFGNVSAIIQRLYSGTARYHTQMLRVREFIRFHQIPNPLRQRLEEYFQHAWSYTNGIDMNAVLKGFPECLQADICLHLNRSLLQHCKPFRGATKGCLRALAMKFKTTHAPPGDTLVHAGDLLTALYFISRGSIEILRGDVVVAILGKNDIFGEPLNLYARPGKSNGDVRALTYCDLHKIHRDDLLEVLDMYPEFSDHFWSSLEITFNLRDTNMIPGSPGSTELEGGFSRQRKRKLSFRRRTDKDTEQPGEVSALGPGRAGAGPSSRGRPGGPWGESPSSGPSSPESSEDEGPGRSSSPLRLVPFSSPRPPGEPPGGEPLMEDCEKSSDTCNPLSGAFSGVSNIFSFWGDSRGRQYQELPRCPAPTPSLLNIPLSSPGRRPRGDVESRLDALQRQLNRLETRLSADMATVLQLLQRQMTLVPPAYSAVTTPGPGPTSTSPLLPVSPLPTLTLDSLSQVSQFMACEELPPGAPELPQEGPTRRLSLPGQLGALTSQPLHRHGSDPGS
row,SMILES,"hERG current change (%, negative = inhibition) at 1uM [%]"
1,Cc1ccc(Cn2nnnc2CN2CCC(NC(=O)C(C)(C)C)CC2)cc1.Cl,7.71
2,Cc1ccc(N2CCN(C(=S)Nc3ccc(Cl)cc3)CC2)cc1,13.4
3,COc1ccccc1N1CCN(CCCn2c(=S)[nH]c3ccccc3c2=O)CC1,-11.9
4,CCN1CCN(C(c2cccs2)C(C)NC(=S)Nc2cc(C)ccc2C)CC1 (stereo not shown),-12
5,O=[N+]([O-])/C(C(Cl)=C(Cl)Cl)=C(/NC1CC1)Sc1ccccc1,11.7
6,Clc1ccc(-c2nnc(CSc3nnc(-c4cccs4)o3)o2)cc1,4.06
7,COc1cccc(CNS(=O)(=O)/C=C/c2ccc(OC)c(OC)c2)c1,5.94
8,COc1cccc(CN2CCNC(=O)C2CC(=O)N(C)C2CCCCC2)c1OC (stereo not shown),14.4
9,CCCc1c(NC(=O)Nc2ccc(Cl)cc2Cl)cnn1-c1ccccc1,13.7
10,CC(C)N=C1SCC(C)(/C=N/O)S1 (stereo not shown),-1.16
11,CC1=NNC(=O)C1CCC(=O)N/N=C/c1ccc(Cl)cc1Cl (stereo not shown),12.6
12,C=C(C)Cn1c(N)cc(=O)nc1SCC(=O)Nc1cccc(C(F)(F)F)c1,13
13,CC1CCCCN1Cc1c[nH]c2ccccc12 (stereo not shown),15.3
14,CCc1ccc(NS(=O)(=O)c2ccc3[nH]c(=O)[nH]c3c2)cc1,9.43
15,Cc1cc(NC(=O)COC(=O)C(Cc2ccccc2)NC(=O)c2ccco2)no1 (stereo not shown),13.5
16,CCCC(CCC)n1[nH]c(=O)c2c(C)cc(C)nc21,3.74
17,CCNC(=O)Nc1ccc(-n2nc(C)c(C(=O)OCC)c2C)nc1,14.1
18,O=C(NNC(=O)C1CCN(S(=O)(=O)c2ccccc2)CC1)c1ccccc1O,-13.4
19,Cn1ccsc1=NC(=O)c1ccc(=O)[nH]c1,11.1
20,CCCCOc1c(Br)cc(/C=N/O)cc1OCC,7.85

row,SMILES,"hERG current change (%, negative = inhibition) at 1uM [%]"
1,O=S(=O)(c1ccc2ccccc2c1)N(CC(O)COCc1ccco1)c1ccccc1 (stereo not shown),11.7
2,COc1ccc(C2C3=C(CC(C)(C)CC3=O)Oc3ncn(Cc4ccccc4)c(=N)c32)cc1 (stereo not shown),-1.76
3,CN1CC(c2ccccc2)Oc2ccccc2C1=S (stereo not shown),6.76
4,O=C(CCc1ccc(S(=O)(=O)N2CCOCC2)cc1)NCCc1ccccn1,-8.64
5,O=C(O)c1sccc1Oc1ccc(NS(=O)(=O)c2cccc(F)c2)cc1,18.3
6,O=C(Nc1ccccc1)C1CCN(C(=O)c2ccc([N+](=O)[O-])cc2)CC1,-67
7,COc1ccc(-n2nc(C(=O)NCC(=O)NC(C)C)c3ccccc3c2=O)cc1Cl,9.57
8,CCCCn1nc(C(=O)NCC2COc3ccccc3O2)c2ccccc2c1=O (stereo not shown),0.585
9,CC(C)(C)c1cc(C(=O)NNS(=O)(=O)c2ccccc2)n[nH]1,14.1
10,S=c1nc(-c2ccccc2)[nH]c2ccccc12,11.5
11,CCCCOc1ccc(/C=C/C(=O)N(CC)CC(=O)Nc2ccc3c(c2)OCCO3)cc1OC,1.75
12,COc1ccc(-c2oc3cccnc3c2/C=C/c2ccc(OC)c(OC)c2)cc1,14.9
13,Cc1nc([N+](=O)[O-])cn1CC(=O)Nc1ccc(F)c(Cl)c1,19.9
14,CCOc1ccc(NC(=O)Nc2nc3ccc(S(C)(=O)=O)cc3s2)cc1,12
15,Cc1cccn2c(=O)c(C=O)c(N3CCCCCC3)nc12,0.0965
16,COC(=O)c1ccc(S(=O)(=O)NC(C)(C)C)n1C,20.5
17,COc1ccc(C(=O)NC=C2C(=O)OC(C)(C)OC2=O)cc1,6.6
18,CC1CCCCC1NC(=O)CCn1c(=O)sc2ccccc21 (stereo not shown),18
19,COc1ccc(-n2c(Cc3cc(=O)[nH]c(=O)[nH]3)nnc2SCC(=O)N2CCC(C)CC2)cc1,6.65
20,S=C(c1ccc[nH]1)N1CCOCC1,17.6

row,SMILES,"hERG current change (%, negative = inhibition) at 1uM [%]"
1,O=C(Nc1ccccc1)c1ccc(Cn2cc(C(F)(F)F)ccc2=O)cc1,0.918
2,CCOc1ccccc1NC(=O)c1ccc(S(=O)(=O)N(C)C)cc1,-9.19
3,COc1ccc(Nc2nc(N3CCN(S(=O)(=O)N(C)C)CC3)nc3ccccc23)cc1,3.21
4,COc1ccc(N(Cc2ccccc2)S(=O)(=O)c2cccc(C(=O)O)c2)cc1,9.52
5,N=c1oc2ccc3ccccc3c2cc1C(N)=S,14.6
6,CSc1ccccc1OCc1cc(C(=O)NCc2cccc(C)n2)no1,11.9
7,CC(=O)Nc1ccc(SCc2csc(C)n2)cc1,12.4
8,CN(C)c1ccc(/C=N/NC(=O)Cn2nnc3ccccc32)cc1,3.83
9,CC1(C)NC(=O)N(CC(O)COc2ccc(N3C(=O)c4ccccc4C3=O)cc2)C1=O (stereo not shown),6.05
10,CC(=O)Nc1cccc(NC(=O)C2C3C=CC(C3)C2C(=O)O)c1 (stereo not shown),7.91
11,O=C(NC1CCN(S(=O)(=O)c2ccccc2F)CC1)c1ccco1,5.85
12,CCCn1c(N)c(Sc2ccc([N+](=O)[O-])cc2)c(=O)n(CCC)c1=O,-26.4
13,O=C(NC1CCN(C(=S)NCCc2ccccc2)CC1)C1CC1,9.63
14,O=C(Nc1nnc(SCCC2OCCO2)s1)C1CC(=O)N(c2ccccc2)C1 (stereo not shown),-31.5
15,Cc1cccc(NC(=O)C2C(C(=O)O)C3C=CC2C32CC2)c1C (stereo not shown),7.58
16,COc1cc(-c2cc(C(=O)Nc3ccc(N4CCOCC4)cc3)c3ccccc3n2)cc(OC)c1OC,6.59
17,CC(C)NC(=O)c1onc(CSc2ccc(Cl)cc2)c1C(=O)NC(C)C,9.83
18,CC(=O)c1ccc(N2CCN(C(=O)c3cn(Cc4ccccc4)nc3-c3cccnc3)CC2)c(F)c1,-19.1
